From PMC11911400, “Mechanism of ASF1 engagement by CDAN1” (Nature Communications, 2025)
Residue numbers refer to the chain shown, from its start. Results are given in words; binding and its absence hold for the method and conditions named. Binding seen in cells or lysates may run through a third protein. Some results given as binding are weak or reduced against the parent protein; the word gives no strength.

Protein sequences, listed by entry. Tags and fused reporters are not part of them.
UniProt Q9NVP2: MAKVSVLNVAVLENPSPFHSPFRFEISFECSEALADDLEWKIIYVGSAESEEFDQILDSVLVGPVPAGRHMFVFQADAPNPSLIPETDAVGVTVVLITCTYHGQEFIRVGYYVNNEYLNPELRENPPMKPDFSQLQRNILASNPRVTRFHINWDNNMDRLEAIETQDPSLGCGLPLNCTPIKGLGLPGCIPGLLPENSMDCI

Columns and labels:
[1] = target: T1, Strep-CDAN1 BDA1* (M824A/R825A/K826A) (human) (UniProt Q8IWY9); experiment: pull-down; Strep-Tactin pulldown of transiently transfected ST-CDAN1 variants from Flp-In 293 T-REx lysates; endogenous ASF1A, ASF1B and CDIN1 detected by immunoblotting; IP buffer with 1% Triton X-100, 1 hr at 4 °C
T1 sequence: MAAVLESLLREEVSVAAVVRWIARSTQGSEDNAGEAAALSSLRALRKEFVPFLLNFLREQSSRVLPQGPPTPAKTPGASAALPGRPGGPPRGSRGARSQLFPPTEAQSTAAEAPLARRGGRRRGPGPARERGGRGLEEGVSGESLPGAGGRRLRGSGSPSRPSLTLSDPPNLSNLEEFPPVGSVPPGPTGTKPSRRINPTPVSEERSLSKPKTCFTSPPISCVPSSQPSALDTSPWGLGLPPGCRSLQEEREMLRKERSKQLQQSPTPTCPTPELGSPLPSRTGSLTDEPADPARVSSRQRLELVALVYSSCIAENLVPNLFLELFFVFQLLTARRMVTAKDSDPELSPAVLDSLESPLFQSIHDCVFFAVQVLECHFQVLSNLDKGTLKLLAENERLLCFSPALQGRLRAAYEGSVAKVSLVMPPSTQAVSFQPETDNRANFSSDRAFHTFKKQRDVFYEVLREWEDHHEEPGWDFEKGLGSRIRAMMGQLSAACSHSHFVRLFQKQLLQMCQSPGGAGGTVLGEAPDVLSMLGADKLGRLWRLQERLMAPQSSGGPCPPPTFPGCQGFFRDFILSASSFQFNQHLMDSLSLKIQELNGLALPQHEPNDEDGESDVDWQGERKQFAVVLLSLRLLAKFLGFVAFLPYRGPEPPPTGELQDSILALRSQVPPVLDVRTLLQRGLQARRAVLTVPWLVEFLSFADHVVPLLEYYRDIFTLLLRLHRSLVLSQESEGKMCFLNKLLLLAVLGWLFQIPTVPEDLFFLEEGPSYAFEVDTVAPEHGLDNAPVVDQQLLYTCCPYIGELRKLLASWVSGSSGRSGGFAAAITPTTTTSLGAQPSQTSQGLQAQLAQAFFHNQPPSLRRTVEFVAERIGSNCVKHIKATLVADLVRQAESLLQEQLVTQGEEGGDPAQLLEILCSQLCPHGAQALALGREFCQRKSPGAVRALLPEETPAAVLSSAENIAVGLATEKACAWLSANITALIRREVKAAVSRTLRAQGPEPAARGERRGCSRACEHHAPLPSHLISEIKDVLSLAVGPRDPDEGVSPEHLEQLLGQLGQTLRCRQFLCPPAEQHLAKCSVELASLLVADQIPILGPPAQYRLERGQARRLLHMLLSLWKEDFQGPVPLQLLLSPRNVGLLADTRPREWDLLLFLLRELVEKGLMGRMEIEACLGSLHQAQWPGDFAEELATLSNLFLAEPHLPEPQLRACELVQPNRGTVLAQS

[2] = target: T2, Strep-CDAN1 HMHA1* BDA1* BDA2* (three elements mutated) (human) (UniProt Q8IWY9); experiment: as above
T2 sequence: T1 sequence with S194A, R195A, R196A, R541A, R544A, R548A

binding [1]: binds
binding [2]: no binding
Substance: endogenous ASF1B (from UniProt Q9NVP2 1-202)
